# Experimental data from the supplement of paper PMC4604168 (melanoma cell lines).
# Some of the results follow. Repeats are few or missing, and single values can be far off.
# Test system: MEL-HO
# Assay: cell count relative to DMSO control; melanoma cells; higher = more viable cells
# Details: library dose: standard library concentration; 72 h; first compound 2 µM
# 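Note: cells treated in 1,536-well plates, then fixed and DAPI-stained, with nuclei counted from automated high-throughput microscope images.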
row,Structure (SMILES),cell count
1,C[C@@H](N)c1ccc(C(=O)Nc2ccnc3[nH]ccc23)cc1 + CO[C@@H]1[C@H](N(C)C(=O)c2ccccc2)C[C@H]2O[C@]1(C)n1c3ccccc3c3c4c(c5c6ccccc6n2c5c31)C(=O)NC4 [Midostaurin] (partner dose 0.4 µM),63.9%
2,Cn1sc(=O)n(Cc2ccccc2)c1=O + Nc1cccc2c1CN(C1CCC(=O)NC1=O)C2=O [lenalidomide] (partner dose 5 µM),115%
3,Cn1sc(=O)n(Cc2ccccc2)c1=O + COc1cc2c(Oc3ccc4[nH]c(C)cc4c3F)ncnc2cc1OCCCN1CCCC1 [cediranib] (partner dose 2 µM),110%
4,C[C@@H](N)c1ccc(C(=O)Nc2ccnc3[nH]ccc23)cc1 + Cn1sc(=O)n(Cc2ccccc2)c1=O [TDZD-8] (partner dose 2 µM),51.1%
5,C[C@@H](N)c1ccc(C(=O)Nc2ccnc3[nH]ccc23)cc1 + CC(C)C[C@H](NC(=O)[C@H](Cc1ccccc1)NC(=O)c1cnccn1)B(O)O [Bortezomib] (partner dose 0.005 µM),17.4%
6,CCCCCCCCCCCCCCCCCCOP(=O)([O-])OC1CC[N+](C)(C)CC1 [Perifosine] + C#Cc1cccc(Nc2ncnc3cc(OCCOC)c(OCCOC)cc23)c1 [erlotinib] (partner dose 4 µM),73.9%
7,Cn1sc(=O)n(Cc2ccccc2)c1=O + CNC(=O)c1cc(Oc2ccc(NC(=O)Nc3ccc(Cl)c(C(F)(F)F)c3)cc2)ccn1 [sorafenib] (partner dose 2 µM),96.5%
8,CCCCCCCCCCCCCCCCCCOP(=O)([O-])OC1CC[N+](C)(C)CC1 [Perifosine] + C[C@]1(c2nc3c(C(N)=O)cccc3[nH]2)CCCN1 [Veliparib] (partner dose 7 µM),89.5%
9,Cn1sc(=O)n(Cc2ccccc2)c1=O + Cc1cc(Nc2cc(N3CCN(C)CC3)nc(/C=C/c3ccccc3)n2)n[nH]1 [ENMD2076] (partner dose 0.2 µM),108%
10,CCCCCCCCCCCCCCCCCCOP(=O)([O-])OC1CC[N+](C)(C)CC1 [Perifosine] + COc1ccc(C2=N[C@@H](c3ccc(Cl)cc3)[C@@H](c3ccc(Cl)cc3)N2C(=O)N2CCNC(=O)C2)c(OC(C)C)c1 [Nutlin-3] (partner dose 0.5 µM),80.6%
11,Cn1sc(=O)n(Cc2ccccc2)c1=O + Cn1c(=O)n(-c2ccc(C(C)(C)C#N)cc2)c2c3cc(-c4cnc5ccccc5c4)ccc3ncc21 [NVP-BEZ235] (partner dose 0.02 µM),63.4%
12,C[C@@H](N)c1ccc(C(=O)Nc2ccnc3[nH]ccc23)cc1 + Nc1nc(F)nc2c1ncn2[C@@H]1O[C@H](CO)[C@@H](O)[C@@H]1O [fludarabine] (partner dose 1 µM),72.7%
13,C[C@@H](N)c1ccc(C(=O)Nc2ccnc3[nH]ccc23)cc1 + O=C(Nc1cccc(Cl)c1)Nc1ncc(CCNc2ncnc3ccsc23)s1 [SNS314] (partner dose 0.004 µM),60.5%
14,Cn1sc(=O)n(Cc2ccccc2)c1=O + O=C(O)c1ccc2c(c1)nc(Nc1cccc(Cl)c1)c1ccncc12 [CX4945] (partner dose 2 µM),57.7%
15,Cn1sc(=O)n(Cc2ccccc2)c1=O + COc1ccc(Cl)c(Nc2nc3ccccc3nc2NS(=O)(=O)c2cccc(NC(=O)C(C)(C)N)c2)c1 [XL147] (partner dose 4 µM),67.4%
16,CCCCCCCCCCCCCCCCCCOP(=O)([O-])OC1CC[N+](C)(C)CC1 [Perifosine] + Cn1nnc2c(C(N)=O)ncn2c1=O [temozolomide] (partner dose 10 µM),103%
17,CCCCCCCCCCCCCCCCCCOP(=O)([O-])OC1CC[N+](C)(C)CC1 [Perifosine] + Clc1ccc(Nc2nnc(Cc3ccncc3)c3ccccc23)cc1 [vatalanib] (partner dose 10 µM),80.9%
18,C[C@@H](N)c1ccc(C(=O)Nc2ccnc3[nH]ccc23)cc1 + COc1cc(Nc2ncc(F)c(Nc3ccc4c(n3)NC(=O)C(C)(C)O4)n2)cc(OC)c1OC [Tamatinib] (partner dose 2 µM),61.5%
19,C[C@@H](N)c1ccc(C(=O)Nc2ccnc3[nH]ccc23)cc1 + COc1cc2c(Oc3ccc4[nH]c(C)cc4c3F)ncnc2cc1OCCCN1CCCC1 [cediranib] (partner dose 2 µM),81.5%
20,C[C@@H](N)c1ccc(C(=O)Nc2ccnc3[nH]ccc23)cc1 + CCCCCCCCc1ccc(CCC(N)(CO)CO)cc1 [fingolimod] (partner dose 10 µM),1.05%

row,Structure (SMILES),cell count
1,Cn1sc(=O)n(Cc2ccccc2)c1=O + C[C@]1(O)C[C@@H](c2nc(-c3ccc4ccc(-c5ccccc5)nc4c3)c3c(N)nccn32)C1 [OSI906] (partner dose 2 µM),89.4%
2,Cn1sc(=O)n(Cc2ccccc2)c1=O + NC(=O)c1ccc(N(C(N)=O)c2c(F)cccc2F)nc1-c1ccc(F)cc1F [VX702] (partner dose 2 µM),99.3%
3,C[C@@H](N)c1ccc(C(=O)Nc2ccnc3[nH]ccc23)cc1 + Cn1cnc2c(F)c(Nc3ccc(Br)cc3Cl)c(C(=O)NOCCO)cc21 [selumetinib] (partner dose 0.075 µM),43.7%
4,CCCCCCCCCCCCCCCCCCOP(=O)([O-])OC1CC[N+](C)(C)CC1 [Perifosine] + CC(C)C[C@H](NC(=O)[C@H](Cc1ccccc1)NC(=O)c1cnccn1)B(O)O [Bortezomib] (partner dose 0.005 µM),38.3%
5,C[C@@H](N)c1ccc(C(=O)Nc2ccnc3[nH]ccc23)cc1 + CNC(=O)c1cc(Oc2ccc(NC(=O)Nc3ccc(Cl)c(C(F)(F)F)c3)cc2)ccn1 [sorafenib] (partner dose 2 µM),68.5%
6,CCCCCCCCCCCCCCCCCCOP(=O)([O-])OC1CC[N+](C)(C)CC1 [Perifosine] + C[C@]1(O)C[C@@H](c2nc(-c3ccc4ccc(-c5ccccc5)nc4c3)c3c(N)nccn32)C1 [OSI906] (partner dose 2 µM),77%
7,CCCCCCCCCCCCCCCCCCOP(=O)([O-])OC1CC[N+](C)(C)CC1 [Perifosine] + NC1(c2ccc(-c3nc4ccn5c(=O)[nH]nc5c4cc3-c3ccccc3)cc2)CCC1 [MK2206] (partner dose 2 µM),74.8%
8,CCCCCCCCCCCCCCCCCCOP(=O)([O-])OC1CC[N+](C)(C)CC1 [Perifosine] + O=c1[nH]nc(Sc2ncc([N+](=O)[O-])s2)n1-c1ccc2c(c1)OCCO2 [BI78D3] (partner dose 1 µM),109%
9,C[C@@H](N)c1ccc(C(=O)Nc2ccnc3[nH]ccc23)cc1 + NC1(c2ccc(-c3nc4ccn5c(=O)[nH]nc5c4cc3-c3ccccc3)cc2)CCC1 [MK2206] (partner dose 2 µM),53.2%
10,CCCCCCCCCCCCCCCCCCOP(=O)([O-])OC1CC[N+](C)(C)CC1 [Perifosine] + Cc1cn(-c2cc(NC(=O)c3ccc(C)c(Nc4nccc(-c5cccnc5)n4)c3)cc(C(F)(F)F)c2)cn1 [nilotinib] (partner dose 1 µM),99.1%
11,Cn1sc(=O)n(Cc2ccccc2)c1=O + CN(c1ncccc1CNc1nc(Nc2ccc3c(c2)CC(=O)N3)ncc1C(F)(F)F)S(C)(=O)=O [PF562271] (partner dose 0.4 µM),84.4%
12,C[C@@H](N)c1ccc(C(=O)Nc2ccnc3[nH]ccc23)cc1 + C=C(c1ccc(C(=O)O)cc1)c1cc2c(cc1C)C(C)(C)CCC2(C)C [Bexarotene] (partner dose 10 µM),69.5%
13,CCCCCCCCCCCCCCCCCCOP(=O)([O-])OC1CC[N+](C)(C)CC1 [Perifosine] + Cc1cc(Nc2cc(N3CCN(C)CC3)nc(/C=C/c3ccccc3)n2)n[nH]1 [ENMD2076] (partner dose 0.2 µM),95.2%
14,C[C@@H](N)c1ccc(C(=O)Nc2ccnc3[nH]ccc23)cc1 + CN(NC(=O)CC(=O)NN(C)C(=S)c1ccccc1)C(=S)c1ccccc1 [STA4783] (partner dose 0.03 µM),64.8%
15,Cn1sc(=O)n(Cc2ccccc2)c1=O + COc1cc(Nc2ncc(F)c(Nc3ccc4c(n3)NC(=O)C(C)(C)O4)n2)cc(OC)c1OC [Tamatinib] (partner dose 2 µM),76.8%
16,CCCCCCCCCCCCCCCCCCOP(=O)([O-])OC1CC[N+](C)(C)CC1 [Perifosine] + OCc1c[nH]c2ccccc12 [Indole-3-carbinol] (partner dose 4 µM),111%
17,C[C@@H](N)c1ccc(C(=O)Nc2ccnc3[nH]ccc23)cc1 + CS(=O)(=O)CCNCc1ccc(-c2ccc3ncnc(Nc4ccc(OCc5cccc(F)c5)c(Cl)c4)c3c2)o1 [lapatinib] (partner dose 4 µM),48.3%
18,Cn1sc(=O)n(Cc2ccccc2)c1=O + O=C(O)c1ccc(-c2c[nH]c3ncc(-c4ccccc4)cc23)cc1C1CCCC1 [GSK650394] (partner dose 0.8 µM),78.2%
19,Cn1sc(=O)n(Cc2ccccc2)c1=O + Cn1nnc2c(C(N)=O)ncn2c1=O [temozolomide] (partner dose 10 µM),108%
